The other results are listed elsewhere or left out.
Tested on: PF3D7_0420300 AP2 domain 1 (GST-tagged)
Experiment: gcPBM binding intensity (ln(normalized median fluorescence intensity)); higher = stronger DNA binding
Outline: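 The highest Masliner-normalised natural-log median intensity across replicate spots of either probe orientation is reported as binding intensity. GST-tagged P. falciparum DNA-binding domains expressed in E. coli were applied for 1 h to an Agilent 4 × 180k array of primer-extended double-stranded 36-bp intergenic genomic probes plus negative controls, and bound protein was detected with Alexa488 anti-GST antibody and scanned at 488 nm.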

Row | Sequence | gcPBM binding intensity (ln)
1 | CACAAAATAAATTAAACACACAACATCAGATATGTA [CACACA_site6529] | 9.59
2 | TAATATACATAATAATGTACATATTTTCATATATAC [XGTACX_site6913] | 9.18
3 | ATAAACTGATGTGTATGTACACATGTAATAATAAAT [XGTACX_site7649] | 9.57
4 | TGTGTTGTAACAAAATGTACGAGCTTGATGTAGAAT [XGTACX_site2293] | 9.39
5 | AATGTAGGTTTATTTACACACAAATATAAATATATA [CACACA_site1523] | 9.5
6 | AATAAAATAATAAAAGCACACAAGAATACAGACAAA [CACACA_site112] | 10.1
7 | TAAGTATAAATATTTACACACATTTGTTTTTTTTTA [CACACA_site7731] | 9.56
8 | ATGTAAAACATAAAATGTACATATTATACAAACTAT [XGTACX_site5797] | 9.55
9 | GGATAATATATTAGAACACACATATATCTGTAAAAA [CACACA_site4266] | 9.42
10 | TAATATAATATATGCACACAAATATGTATATATGTG [CACACA_site2134] | 9.42
11 | AAAGGATATGGACACACACACACATATATATATATA [CACACA_site8686] | 10
12 | CAACACTTATTGAAACGTACGCATATAGTTTCTTTT [XGTACX_site8960] | 9.29
13 | TTTATTTATATTTATACACACAAACATAATACTACT [CACACA_site7039] | 9.58
14 | ATATATTTTTTAAACACACACATAAATATTTGTGTA [CACACA_site2879] | 9.67
15 | TATTTTTCTTTATTGGTACACACGAAAAAAAAATTG [CACACA_site3054] | 9.13
16 | AAAATCCAGTTTTCAAAATTGAACAAAAAAAAAATA [GTGCAC_negctrl_site542] | 9.06
17 | AAAATATATATGTATGTTTATATGTTTATATATATT [XGTACX_negctrl_site337] | 9.26
18 | AAAAAAAAATTTAAGTGTACATTCCATTTTAGTTTA [XGTACX_site5286] | 9.11
19 | TCTAAGTATAAAGACACACAGAATAAAAAAAAATAT [CACACA_site2367] | 9.66
20 | TATTTAATATATTTATGTACATATTTATTTATTATT [XGTACX_site524] | 9.38
21 | AAGAAGCATAAATGTACACACATATTTATATATCAA [CACACA_site6743] | 9.51
22 | TATTAAAGGGGTTTCACACACATGTATAATTAATTT [CACACA_site200] | 9.5
23 | AATTTGTTATGTATATGTACATAAATAGATATATGA [XGTACX_site3930] | 9.11

Row | Sequence | gcPBM binding intensity (ln)
24 | AATATGAACAGACACACACACACAAAAAAAAAAAAA [CACACA_site2012] | 10
25 | AACCATATTTAGATTACACACAGTTTAAATATTTTA [CACACA_site6712] | 9.37
26 | TCGTCTCTTCTTGTTCTGTTTTAGAAGGCTATATAT [CACACA_negctrl_site180] | 9.42
27 | TCCAGGTATTTATTCTGTACACATAAAACATTTTAT [XGTACX_site8472] | 9.31
28 | AGGAGGTCAGTTCACAGTACCCAGAAAACTCTACGA [XGTACX_site1992] | 9.03
29 | ATATATATATATATATGTACATATTTTAATAATTAA [XGTACX_site8549] | 8.98
30 | CGCGCACACGGACACACACACACACGGATATAAATA [CACACA_site7102] | 10.2
31 | TGTTGTTACATATATACACACATATATATATTATAT [CACACA_site2397] | 9.45
32 | TAATATAGTATAGTATGTACATATAATTAGAATATT [XGTACX_site4053] | 9.46
33 | TGGTATATATTTCCTTGTACATATAATATATATTGT [XGTACX_site3961] | 9.45
34 | TTGGATTTTCCATAATGTACACATAAAAGTGTTACA [XGTACX_site4544] | 8.76
35 | TTTTAAAAAATATAATATAATATAATATAAAATAAA [CACACA_negctrl_site154] | 8.97
36 | CAAAACCTACATAACATACACACGCATATATAGAAT [CACACA_site2846] | 9.84
37 | TTCTTATCAAGAGAAAGTACATAAAAAATTAATAAG [XGTACX_site1821] | 9.08
38 | CCAACAAAAATAAGCACACACAAATATACATACATA [CACACA_site3606] | 10.1
39 | CATGCAATATTAAACACACACTCATATAGCACAATA [CACACA_site6182] | 9.73
40 | ACAGTATCTGGTAGCTGTACGGATTGTAGAGAGTAG [XGTACX_site4872] | 9.19
41 | AGAATAATAAAATGGGTGCAATAGTTTTTTTTTTTT [GTGCAC_site9823] | 9.34
42 | GTTCATACTTAATATTGTACTTTTCATGTAGTGTAT [XGTACX_site6613] | 9.39
43 | TAACATATTTTTAATACACACTCAAAAAAGTACTTA [CACACA_site5638] | 9.2
44 | AAATAAATATTTATATGTACATATATTTTATAATAC [XGTACX_site7041] | 9.13
45 | TACAAATATATATGCACACACATATACATACATATA [CACACA_site2182] | 9.79
46 | TATTAGATATAATATATACACACCAACGAACGAAGA [CACACA_site1134] | 9.87

Row | Sequence | gcPBM binding intensity (ln)
47 | TTCATTCAAATTAACGTGCACATTATTAGTAAAAAC | 9.08
48 | TTATATAATTTAATAGTGCAATTATATTAATTTTTC | 8.88
49 | TATACCTATAGACACACACACATATAGATTTATATA [CACACA_site7124] | 9.98
50 | CGCATACACAGACACACACACACATATAAATATGTA [CACACA_site6444] | 9.92
51 | AATTTTTTATTAAACACACAAACATATATATATATA [CACACA_site1937] | 9.18
52 | CATATTTCTTTATTGGCACACATTTTTTCAATTATA [CACACA_site1618] | 9.44
53 | AAAAAAAAAAAAAACACACACAAATTTAATCTATAT [CACACA_site6894] | 9.91
54 | TGTTATTACTTTATATCATCTTAAAATAAGCATATT [CACACA_negctrl_site1501] | 8.96
55 | TGAAATAAATAATGCACACTCTACAGATATACGTAT [CACACA_site5270] | 9.46
56 | TTGAAAATACAAAATTGTACAAAGATTTAAATAAAA [XGTACX_site1182] | 9.05
57 | TTTATTTATTACAATTTTTGAATCACCACACAGTCG [GTGCAC_negctrl_site413] | 9.01
58 | ATCATGTTATATACATGTACATATATATATATATAT [XGTACX_site1329] | 9.16
59 | ATATATTAAAAACGATGTACCCTGAACTAAAAAAAA [XGTACX_site4986] | 9.32
60 | TATTTATTTATGTGTTGTACAAATAAATAGAGGTAT [XGTACX_site6408] | 9.38
61 | TATATGAAAATGTTCATACACACATAAAAAAAAAAA [CACACA_site3237] | 9.42
62 | AATACAAATATATACACACATACATACATACATATA [CACACA_site3147] | 9.89
63 | ATATATATATGTTACTGTACTAATTTATATGTTAAT [XGTACX_site3341] | 9.42
64 | TAGTTTTCTTAAAGATGTACATTTTAAAAATAATCT [XGTACX_site255] | 8.86
65 | TAGATATATAATTTGCGTACACAAATAATATATTTT [XGTACX_site6397] | 9.04
66 | TTATGGTTTAAATAAAGTACAAATAAATAAATATAT [XGTACX_site5777] | 9.26
67 | ATACACATATGTTAATGTACACATATATAATATTTA [XGTACX_site163] | 9.28
68 | CACAAAAATAGACACACACACATATAGATTTATTAT [CACACA_site7676] | 10.1
69 | TTATGAAAAATAAAATTAGAAAAAAAGGAAAATGAA [XGTACX_negctrl_site232] | 9.24

Row | Sequence | gcPBM binding intensity (ln)
70 | TTTCTTAAATATATTGAGGAATAAAAAGAAGAAAAG [GTGCAC_negctrl_site281] | 9.06
71 | AGGTTACATAGATTTTGTACATATATATTATTTTTT [XGTACX_site3040] | 9.37
72 | AAAAAATTATAAAAGTGTACATATATATATATATAT [XGTACX_site154] | 8.93
73 | TAAATACTTTTATGTACACACATATAGATATATATT [CACACA_site5416] | 9.36
74 | GTGATAAATATTATATGTACATATAATATTTATGTC [XGTACX_site8023] | 9.18
75 | TTGAACCTGATAAATACACACAATATATATTTTTTT [CACACA_site2173] | 9.36
76 | CCATTCTTACTTTATTGTACTTGAAAATTTTTTTTA [XGTACX_site6160] | 9.28
77 | TCAAAAACGAGACATGCATGCAATTCATTTTGATTC [TGCATGCA_site212] | 9
78 | TTAAAATAGATAAATAGTACTCTTTCCATTATGTAA [XGTACX_site6299] | 8.96
79 | TATATAATAAGATATGCATGCACATGTAAAATGAAT [TGCATGCA_site499] | 9.46
80 | ATAATGTTTTATAATACACACATTAGATATATAAAT [CACACA_site7834] | 9.41
81 | TCATATAACACTTGATGTACAAGAATCCAAGTTGCA [XGTACX_site8758] | 9.07
82 | ATATGTATAATATATATATATATATATATATATATA [CACACA_negctrl_site623] | 9
83 | GAAATTATGTAAAAAAGTACTAACATACATATATAT [XGTACX_site1794] | 9.35
84 | GAAAACGTCTTTAATAGTACACAGTTAAAAAATACA [XGTACX_site8976] | 8.98
85 | TTTTTTTTTTTGATGGTGCAATATATTAAATAGAAA | 8.87
86 | TATATATATATATAAAGTACATATAATATATATTTG [XGTACX_site5412] | 9.16
87 | TTTTTTCATTATATATAGTATGCAAGTCAAATTAAT [GTGCAC_negctrl_site207] | 8.91
88 | AAAAAAAAAAAAAACATACACACATTGAACTTTTAT [CACACA_site3251] | 9.65
89 | CTATAAAAATATAATTGTACAAATTTTTATATCTTA [XGTACX_site7722] | 8.89

— the supplement of paper PMC11417369
